In PubChem BioAssay AID1346428 (National Center for Advancing Translational Sciences (NCATS), 2018) one finds activation data, which are given here for 49 molecules.

The structures appear in SMILES notation. Values joined by “and” are separate entries in the source; they are usually repeats but may differ in a detail not shown here. Identical values can stand only once. In all, about 48,000 compounds went through this assay and about 1,200 (2.5%) were called active. Not shown: some 2% with an inconclusive outcome.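 The calls were made as follows: active = activation of at least 60% and not above a set upper limit (about 1 call in 100 departs from these limits); inconclusive = activation of 40% to 60%, or above that upper limit; inactive = activation under 40%.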 The list shows a part of the results.

Chain of UniProt O75388 (O75388 whole entry, looked up, the tested form may be a part): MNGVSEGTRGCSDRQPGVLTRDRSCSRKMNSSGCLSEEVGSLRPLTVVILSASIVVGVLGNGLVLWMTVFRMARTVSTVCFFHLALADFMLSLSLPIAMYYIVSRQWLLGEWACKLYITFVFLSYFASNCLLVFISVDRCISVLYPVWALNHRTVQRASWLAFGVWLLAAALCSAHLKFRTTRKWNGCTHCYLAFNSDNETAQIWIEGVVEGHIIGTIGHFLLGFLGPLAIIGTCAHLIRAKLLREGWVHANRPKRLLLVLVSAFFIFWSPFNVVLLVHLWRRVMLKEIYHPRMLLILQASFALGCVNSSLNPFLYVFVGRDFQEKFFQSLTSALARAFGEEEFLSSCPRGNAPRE

The assay deals with Probable G-protein coupled receptor 32 (Homo sapiens) (UniProt O75388). In words: qHTS for Agonists of Human Resolvin D1 Receptor DRV1. The note with it: CHO-K1 GPR32 beta-arrestin PathHunter luminescence, 90 min; at 76.9 µM; stronger effect = higher value; zero percent set by DMSO-only wells. The method, boiled down:
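PathHunter enzyme-fragment complementation, CHO-K1 GPR32 stable line; 2,500 cells/well, overnight attach; cpd 90 min 37 °C 5% CO2; detection reagent 1 h RT; chemiluminescence. DMSO = EC0.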
As for `COc1ccc(Br)cc1CNC(=O)c1ccc2c(c1)nc1n2CCC(C)C1` (centres undefined), the activation is inactive: -17.5%.

For `CCCCNc1nc(Oc2ccc(=O)n(C)n2)nc(N2CCOCC2)n1`, the activation was inactive: 13.4%.

For `Cc1cc(C)cc(NC(=O)c2cc(S(=O)(=O)N3CCC(C)CC3)cn2C)c1`, the activation was inactive: 4.19%.

For `CC(=O)c1cccc(NC(=O)CCc2c(C)nc3c(c(C)nn3-c3ccccc3)c2C)c1`, the activation is inactive: 40.3%.

Consider `COc1ccc(C(=O)c2c(N)c(-c3nc(-c4ccc(OC)cc4)cs3)c3ccccn23)cc1`, for which the activation is inactive: 3.06%.

With `O=C(CCC1N=C2c3ccccc3N=C(SCc3cccc(Cl)c3)N2C1=O)N1CCN(c2ccccc2)CC1` (centres undefined), the activation is inactive: -28.9%.

As to `CCOc1ccc(-c2cc3c(=O)n(CC(=O)Nc4cc(F)ccc4C)ccn3n2)cc1`, the activation was inactive: -4.22%.

For `Cc1cc(C)c2c(=O)cc(C(=O)Nc3c(C)n(C)n(-c4ccccc4)c3=O)oc2c1`, the activation was inactive: 4.22%.

With `N[C@H](CO)C(=O)O`, the activation is inactive: -1.34%.

As to `CCn1nc(-c2ccccc2)c(-c2ccccc2)c(C(=O)Nc2ccccc2C#N)c1=O`, the activation is inactive: -19.2%.

Regarding `COc1cc2[nH]c(=O)n(CCC(=O)N3CCN(c4ccc(Cl)cc4)CC3)c(=O)c2cc1OC`, the activation was inactive: -0.219%.

With `Cc1cc(C)c(/C=C/c2onc(C)c2S(=O)(=O)N2CCC(C(=O)NCc3ccccc3Cl)CC2)c(C)c1`, the activation is inactive: 0.0655%.

For `COc1cc(OC)c(OC)cc1/C=C/c1nc2cc3ccccc3cc2c(=O)n1-c1ccc(F)c(Cl)c1`, the activation was inactive: -5.58%.

As to `O=C(c1cc(-c2ccccc2O)on1)N1CCCCC1`, the activation was inactive: -11.5%.

For the molecule `CCc1c(C)nc(SCc2nc(-c3ccccc3)no2)[nH]c1=O`, the activation is inactive: 2.12%.

Take `Cc1cc2nc(-c3cccc(NC(=O)C(C)C)c3C)oc2cc1C`: the activation is inactive: 12.3%.

Take `COc1cc(S(N)(=O)=O)cc(C(=O)O)c1OC`: the activation is inactive: -5.17%.

As to `CCN(CC)C(=O)c1sc2c(c1C)c(=O)n(CCc1ccccc1)c(=O)n2Cc1ccc(F)cc1Cl`, the activation was inactive: -13%.

Consider `CCOc1ccc(C(=O)Nc2ccc3nn(-c4ccc(OC)c(Cl)c4)nc3c2)cc1`, for which the activation is inactive: -7.11%.

For the molecule `O=C(c1ccc2c(c1)N(Cc1ccccc1F)C(=O)c1ccccc1S2(=O)=O)N1CCN(c2ccccc2F)CC1`, the activation was inactive: -5.91%.

As to `CCN[C@H]1C[C@H](C)S(=O)(=O)c2sc(S(N)(=O)=O)cc21`, the activation was inactive: -18.7%.

Consider `Cc1ccc(OCC(=O)Nc2cccc(-c3nc4ccccc4o3)c2C)cc1C`, for which the activation was inactive: -1.4%.

Consider `COc1ccc2cc(-c3nc(Cl)c4c5c(sc4n3)CC(C)CC5)c(=O)oc2c1` (centres undefined), for which the activation is inactive: -14.3%.

Take `O=C(Cn1c(=O)n(-c2cccc(Cl)c2)c(=O)c2sc3ccccc3c21)NC1CCCCC1`: the activation was inactive: -8.04%.

For the molecule `COc1ccccc1NC(=O)c1c(NC(=O)COc2ccccc2)sc2c1CCCCC2`, the activation was inactive: 1.05%.

For the molecule `CNC(=O)C1CCC(Cn2c(=O)c3sccc3n(CC(=O)NCc3ccc(OC)cc3)c2=O)CC1` (centres undefined), the activation is inactive: -14.9%.

Consider `O=C(CSCc1ccc(F)cc1)N1CCN(c2ccc(Cl)cc2)CC1`, for which the activation is inactive: -3.13%.

`Clc1ccc(CN2CCC(CNc3ncnc4onc(-c5ccc(Cl)cc5)c34)CC2)cc1`: the activation is inactive: 37%.

Turning to `CC(C)CC(=O)n1nc(-c2cccnc2)nc1NCc1ccc(F)cc1`, the activation was inactive: -30.9%.

With `Cc1ccc(NC(=O)CCCn2c(=O)c3cccn3c3ccccc32)cc1C`, the activation is inactive: -14.7%.

Consider `COCCCNC(=O)c1ccc(-n2c(-c3ccccc3)cc3c2CCCC3)cc1`, for which the activation is inactive: -21.1%.

`O=C(OCc1cc(=O)n2nc(C3CCCCC3)sc2n1)c1ccccc1Cl`: the activation is inactive: 20.1%.

Turning to `COc1cccc(-c2nnc(SCC(=O)N3CCC(C)CC3)o2)c1`, the activation is inactive: -4.76%.

In the case of `Cc1cc(C)n(-c2nc3ccccc3nc2Nc2ccc(Cl)c(C(=O)OC(C)C)c2)n1`, the activation is inactive: 5.21%.

Turning to `OC[C@H]1O[C@@H]2O[C@H]3[C@H](O)[C@@H](O)[C@@H](O[C@H]4[C@H](O)[C@@H](O)[C@@H](O[C@H]5[C@H](O)[C@@H](O)[C@@H](O[C@H]6[C@H](O)[C@@H](O)[C@@H](O[C@H]7[C@H](O)[C@@H](O)[C@@H](O[C@H]8[C@H](O)[C@@H](O)[C@@H](O[C@H]1[C@H](O)[C@H]2O)O[C@@H]8CO)O[C@@H]7CO)O[C@@H]6CO)O[C@@H]5CO)O[C@@H]4CO)O[C@@H]3CO`, the activation is inactive: -20.1%.

Consider `COc1ccc(OCC(=O)OCc2cc(=O)n3nc(-c4cccs4)sc3n2)cc1`, for which the activation was inactive: -4.79%.

Turning to `Cc1ccc(CCNC(=O)CCCn2c(=O)c3ccccc3n(Cc3ccccc3C#N)c2=O)cc1`, the activation was inactive: 7.92%.

Turning to `CCn1cc2c(n1)-c1c(oc(C(=O)Nc3cccc(C)c3C)c1C)CC2`, the activation was inactive: -13%.

For `Cc1ccc(CNC(=O)CCc2c(C)nc3nc(C)nn3c2C)cc1`, the activation was inactive: -4.52%.

With `Cc1ccc(OCC(=O)Nc2cccc(OCc3cc(=O)n4cccc(C)c4n3)c2)cc1C`, the activation was inactive: -14.4%.

As for `Cc1ccc(Cl)cc1NC(=O)Cn1c(=O)n(Cc2ccccc2)c(=O)c2oc3ccccc3c21`, the activation is inactive: -6.42%.

For `Cc1cc(C)cc(NC(=O)CSc2oc(-c3ccccc3)nc2S(=O)(=O)c2ccccc2)c1`, the activation was inactive: -10.1%.

In the case of `N#Cc1c(C(F)(F)F)cc(-c2cccs2)nc1SCC(=O)Nc1ccccc1F`, the activation is inactive: -13.7%.

Regarding `CCc1ccc(O)c(C(=O)c2cnc3cc(-c4ccc(C)cc4)nn3c2)c1`, the activation was inactive: -11%.

As for `Cc1cc(C)cc(NS(=O)(=O)c2ccc3[nH]cc(C(=O)NC4CCCCC4)c(=O)c3c2)c1`, the activation was active: 110%.

For the molecule `CCn1cc(S(=O)(=O)c2ccccc2)c(=O)c2cc(F)c(N3CCCC3)cc21`, the activation is inactive: -5.26%.

As to `CCOc1ccc(-c2cc(C(=O)NCc3ccccc3Cl)c3ccccc3n2)cc1`, the activation was inactive: -22.1%.

Turning to `O=C1Cc2cc(CCN3CCN(c4nsc5ccccc45)CC3)c(Cl)cc2N1`, the activation was inactive: -29.3% and inactive: -103%.

For the molecule `COc1ccc(OC)c(NC(=O)c2ccc(-c3nc(CSc4ccccc4)c(C)o3)cc2)c1`, the activation is inactive: 5.81%.
